Values joined by “and” are separate entries in the source; they are usually repeats but may differ in a detail not shown here. Equal entries are not always repeated. The whole screen tested about 120,000 compounds, of which about 5,300 (4.4%) were called active. This list was built around the results that the source calls inconclusive (neither active nor inactive); the mix of calls is not that of the screen. Calls come from the whole dose curve; as a rule, active = well fitted inhibition curve with a large enough effect; inconclusive = small, poorly fitted or top-dose-only effect; inactive = no such curve, though single readings can be large or run the other way. Where the call is inconclusive, the potency comes from a doubtful curve fit.
Experiment: qHTS Primary assay for Inhibitors of Plasmodium falciparum Dd2 growth in vitro; note: nearly all actives have a fitted effect of over 65% in size;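 for activity, negative = inhibition: plate controls were DMSO vehicle for no effect and reference drug for full effect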
Conditions: P. falciparum Dd2 growth, SYBR Green, 72 h; activity, negative = inhibition: at 28.9 µM (top of the series) unless noted; series mostly up to 28.9 µM
Procedure, shortened: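 Readout: SYBR Green fluorescence, 485 nm excitation, 535 nm emission, after ~16 h lysis at 37C. Before that, Dd2-infected red cells (2.5% hematocrit) grew 72 h with compound, 29 uM top final concentration.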
Potency is the fitted concentration of half-maximal effect; tags give direction and shape of the fitted curve.

| SMILES | activity, negative = inhibition | Potency | outcome |
| --- | --- | --- | --- |
| O=C1NC(=NC2CCCCC2)C2(CCCN(S(=O)(=O)c3cccs3)C2)N1c1cc(F)cc(F)c1 (configuration not stated) | inactive: -26.6% |  |  |
| O=C(CC1N=C2c3ccccc3N=C(SCC(=O)Nc3cccc(C(F)(F)F)c3)N2C1=O)NCc1cccs1 (configuration not stated) |  | active: 12.6 µM |  |
| COc1ccc(CCNC(=O)c2nn(-c3ccc(C)cc3)c(=O)c3c2c2ccccc2n3C)cc1OC |  | inconclusive: 1 µM [inhibitor, single point] |  |
| COc1ccc(C(=O)N2CCC3(CC2)C(=NC2CCCCC2)NC(=O)N3c2cc(F)cc(F)c2)cc1 | inactive: -24.1% |  |  |
| CCc1ccccc1NC(=O)c1cc(S(=O)(=O)N(CC)c2ccccc2)ccc1F |  | inconclusive: 17.8 µM [inhibitor, single point] |  |
| O=C(c1cccc(-c2ncc[nH]2)c1)N1CCn2nc(Cc3ccccc3)cc2C1 | inactive: -20.5% |  |  |
| COc1ccccc1NC(=O)CCCOc1cc(=O)n(C)c2ccccc12 |  | inconclusive: 1.26 µM [inhibitor, single point] |  |
| Cc1cnn(C)c1S(=O)(=O)NC1CC(c2cc(N3CCCC3)ncn2)C1 (configuration not stated) | inactive: -28.5% |  |  |
| COc1ccccc1NC(=O)Nc1ccc(-c2nnc3n2CCCC3)cc1 |  | active: 3.98 µM |  |
| COc1ccc(NC(=O)CCN2CCN(c3cccc(Cl)c3)CC2)cc1 |  | inconclusive: 20 µM [inhibitor, partial curve, poor fit] |  |
| O=S(=O)(c1ccccc1Cl)N1CCC(c2noc(COCC3CC3)n2)CC1 |  | inconclusive: 17.8 µM [inhibitor, single point] |  |
| CCN(CC1CCN(CCc2ccccc2C)CC1)C(=O)c1cc(C)nc(C)n1 |  | inconclusive: 4.47 µM [inhibitor, partial curve, poor fit] |  |
| NC(=O)NCCC(=O)N1CCc2[nH]nc(-c3cccc4ccccc34)c2C1 | inactive: 0.252% |  |  |
| COc1ccc(CN2C(=O)CO[C@H]3CN(Cc4ccccc4Cl)C[C@H]32)cc1 |  |  | inactive [at 44.1 µM] |
| COc1cc(NC(=O)Cn2c(=O)n(Cc3ccccc3OC)c(=O)c3cccnc32)cc(OC)c1 |  | inconclusive: 15.8 µM [inhibitor, single point] |  |
| COc1ccc(CN2CCOc3nc(-c4cccc(N(C)C)c4)ncc3C2=O)cc1 |  | inconclusive: 11.2 µM [inhibitor, partial curve, poor fit] |  |
| CN(c1ccccc1)c1cc(=O)c2ccnc(N3CCN(c4ccccn4)CC3)c2o1 |  | active: 12.6 µM |  |
| Cc1cc(C)n(CC(=O)N2C[C@@H](COc3ccccc3)[C@H](C(N)=O)C2)n1 |  | inconclusive: 1 µM [inhibitor, full curve, poor fit] |  |
| NC(=O)[C@H](CC1CCCCC1)NC(=O)[C@@H]1C[C@@H](NC(=O)Nc2cccc(F)c2)CCN1C(=O)[C@H]1CCCN1 | inactive: -17.6% |  |  |
| Cc1noc(-c2ccc(S(=O)(=O)N3C[C@H](C4CC4)[C@@H](N)C3)o2)c1C |  | inconclusive: 3.55 µM [inhibitor, partial curve, poor fit] |  |
| CCC(=O)N1CCN(c2nc3c(s2)CC(C(=O)Nc2cccc(C)c2C)CC3)CC1 (configuration not stated) |  | active: 3.98 µM |  |

| SMILES | activity, negative = inhibition | Potency | outcome |
| --- | --- | --- | --- |
| O=C(c1ccc(C(F)(F)F)cc1)N1CCc2nc(C3CC3)nc(-c3ccc(Cl)cc3)c2CC1 |  | inconclusive: 0.631 µM [inhibitor, partial curve] |  |
| Cc1cc(C)cc(OCC(=O)NCC(c2ccc(Cl)cc2)N2CCCCC2)c1 (configuration not stated) |  | active: 11.2 µM |  |
| CCOC(=O)C1(Cc2ccccc2F)CCCN(C(=O)c2ccc3ncccc3c2)C1 (configuration not stated) |  | inconclusive: 17.8 µM [inhibitor, single point] |  |
| COc1ccc(-c2cc(N3CCCN(C(=O)c4nn(C)c5ccccc45)CC3)n[nH]2)cc1 |  | inconclusive: 0.891 µM [inhibitor, partial curve, poor fit] |  |
| COc1ccccc1-n1cc(-c2ccnc(N3CC(n4cccn4)C3)n2)cn1 |  | inconclusive: 7.94 µM [inhibitor, partial curve, poor fit] |  |
| O=C1CC2(CCN(Cc3cccc(OCc4ccccc4Cl)c3)CC2)CN1 |  | inconclusive: 5.01 µM [inhibitor, partial curve] |  |
| O=C1Nc2ccccc2C2(CCN(C(=O)OCc3ccccc3)C2)O1 (configuration not stated) |  | inconclusive: 10 µM [inhibitor, single point] |  |
| O=C1CCCN1CCCN1C(=O)[C@@H]2C[C@@H](O)CN2C2(CN(C3Cc4ccccc4C3)C2)C1=O |  | inconclusive: 5.01 µM [inhibitor, single point] |  |
| Cc1ccc(-c2cc(C(=O)O)n(C)c2)cc1 | inactive: 31.6% |  |  |
| COc1ccc(NC(=O)CSc2ncc(-c3ccc(Cl)cc3)[nH]2)cc1OC |  | inconclusive: 7.94 µM [inhibitor, partial curve, poor fit] |  |
| CN1c2cc(C(=O)Nc3ccc(S(N)(=O)=O)cc3)ccc2C(=O)N2CCCCC21 (configuration not stated) |  | inconclusive: 2 µM [inhibitor, full curve] |  |
| C[C@@H]1CN(C(=O)c2ccc3c(c2)N(C)C(=O)CO3)C[C@@]1(O)C1CCC1 | inactive: -4.9% |  |  |
| COc1ccccc1NC(=O)CSc1nnc(-c2cccc(Cl)c2)o1 | inactive: 10.2% |  |  |
| CCOc1ccccc1-c1nc(-c2ccc(-c3ccccc3)nc2OCC)no1 |  | inconclusive: 17.8 µM [inhibitor, single point] |  |
| COc1ccccc1Nc1c2c(nc3ccc(NC(=O)/C=C/c4cccc(OC)c4OC)cc13)CCCC2 |  | active: 1.12 µM |  |
| O=C(NCCc1ccccn1)c1cccnc1OC1CCNCC1 | inactive: -11.2% |  |  |
| COc1cc(OC)c(NC(c2nnc(-c3ccccc3)o2)c2ccc(F)cc2Cl)cc1Cl (configuration not stated) |  | active: 6.31 µM |  |
| O=c1[nH]c(C2CCCN(Cc3ccc(-c4cccs4)cc3)C2)nc2ccc(F)cc12 (configuration not stated) |  | inconclusive: 7.08 µM [inhibitor, partial curve, poor fit] and inconclusive: 10 µM [inhibitor, single point] |  |
| COCCN1CCCN(C(=O)c2cc(C)ccc2C)c2ccccc21 |  | active: 10 µM |  |
| COc1ccccc1-n1cc(-c2ccc(C)cc2)nc1S(=O)(=O)CC(=O)Nc1ccccc1C(F)(F)F |  | inconclusive: 8.91 µM [inhibitor, partial curve] |  |
| CCc1nn(-c2ccc(OC)cc2)c(Oc2ccccc2F)c1CCC(=O)NCC1CC1 | inactive: -5.52% |  |  |

Source: PubChem BioAssay AID1347417 (National Center for Advancing Translational Sciences (NCATS), 2020)
